Assay results: paper PMC4336329 (PLoS ONE, 2015)
Hit rate of the full screen: of about 310,000 compounds, about 14,000 (4.5%) showed an effect of 50% or more. The effect is printed as a negative number. Some of the results follow.

target: human ether-à-go-go-related gene (hERG) potassium channel (human, UniProt Q12809); experiment: primary screen, population patch clamp on CHO cells stably expressing hERG
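Further: peak tail current of the secondary pulse compared with the same well before compound.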

Chain of human ether-à-go-go-related gene (hERG) potassium channel (Q12809 whole entry, looked up): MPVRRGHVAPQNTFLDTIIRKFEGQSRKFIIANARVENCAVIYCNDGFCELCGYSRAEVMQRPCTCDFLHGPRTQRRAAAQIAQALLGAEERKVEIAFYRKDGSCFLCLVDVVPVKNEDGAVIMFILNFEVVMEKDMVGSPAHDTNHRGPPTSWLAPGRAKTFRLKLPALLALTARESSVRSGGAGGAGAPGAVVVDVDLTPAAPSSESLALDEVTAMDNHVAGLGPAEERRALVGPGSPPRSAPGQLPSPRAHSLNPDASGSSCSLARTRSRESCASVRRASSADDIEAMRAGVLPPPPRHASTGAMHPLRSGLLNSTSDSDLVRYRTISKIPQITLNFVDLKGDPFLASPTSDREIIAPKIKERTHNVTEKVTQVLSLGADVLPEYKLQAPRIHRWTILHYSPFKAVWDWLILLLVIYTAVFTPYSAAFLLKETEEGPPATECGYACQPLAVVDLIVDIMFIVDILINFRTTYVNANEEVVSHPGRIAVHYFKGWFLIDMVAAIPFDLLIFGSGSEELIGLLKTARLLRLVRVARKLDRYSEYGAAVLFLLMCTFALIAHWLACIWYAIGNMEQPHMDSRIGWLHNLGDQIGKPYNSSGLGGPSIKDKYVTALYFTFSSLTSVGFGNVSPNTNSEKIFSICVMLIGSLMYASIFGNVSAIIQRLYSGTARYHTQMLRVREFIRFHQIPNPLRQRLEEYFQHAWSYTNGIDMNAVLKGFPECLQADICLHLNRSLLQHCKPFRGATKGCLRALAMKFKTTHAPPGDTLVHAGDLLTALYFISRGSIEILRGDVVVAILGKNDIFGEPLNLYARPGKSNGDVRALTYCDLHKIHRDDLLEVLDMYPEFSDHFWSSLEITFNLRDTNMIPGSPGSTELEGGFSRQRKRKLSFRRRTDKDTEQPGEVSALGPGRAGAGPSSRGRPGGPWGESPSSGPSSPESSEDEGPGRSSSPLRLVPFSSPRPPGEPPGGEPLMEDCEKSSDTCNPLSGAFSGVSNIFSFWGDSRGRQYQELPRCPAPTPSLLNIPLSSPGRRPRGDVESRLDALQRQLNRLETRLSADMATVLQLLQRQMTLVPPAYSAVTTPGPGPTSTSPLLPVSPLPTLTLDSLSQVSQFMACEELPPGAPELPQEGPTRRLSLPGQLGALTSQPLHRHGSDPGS

SMILES	hERG current change (%, negative = inhibition) at 10uM
O=S(=O)(Nc1ccc(Cl)nn1)c1ccccc1	12.7%
O=C(CSC1=NCCN1)Nc1ccccc1[N+](=O)[O-]	11.2%
CC1(C)CC(=O)C2=C(C1)OC(/N=C/N1CCCC1)=C(C#N)C2c1ccccc1 (stereo not shown)	-0.0862%
COC(=O)c1cc(NC(=O)C2COc3ccccc3O2)cc(C(=O)OC)c1 (stereo not shown)	-29.6%
CCOC(=O)C1CCN(C(=O)c2ccccc2NS(=O)(=O)c2cc(C)ccc2C)CC1	12.4%
CC(C)c1ccc(OCC(=O)NCCO)cc1	27.6%
O=C(O)c1c(-c2ccccc2)c2oc3ccccc3c2[nH]c1=O	-0.736%
CCOC(=O)CNC(=O)COc1coc(CN2CCN(c3ccccc3F)CC2)cc1=O	12.5%
CC(C)c1ccc(/C=N/n2cnnc2)cc1	0.305%
COC(=O)c1ccc(CSc2nc3c(c(=O)n2-c2ccc(Br)cc2)SCC3)o1	6.03%
CCCCCCSc1nnc(-c2cnn(-c3ccccc3)c2-n2cccc2)n1C	-20.8%
Cc1ccc(-n2nnnc2-c2cnc(N3CCCC3)nc2C(F)(F)F)cc1	-9.95%
O=C1C=C(O)c2c(O)cccc2C1=O	15.4%
FC(F)(F)c1nc(-c2ccncc2)ncc1-c1nnnn1-c1ccccc1	-0.18%
C=CCN(CC=C)C(=O)C1CCC(C(=O)N(CC=C)CC=C)CC1 (stereo not shown)	5.11%
CCOC(=O)N1CCN(Cc2cc(Cl)c3cccnc3c2O)CC1	-16.7%
Cc1ccc(S(=O)(=O)N2CCC(=O)CC2)cc1	10.7%
CS(=O)(=O)N(CC(=O)Nc1cccc([N+](=O)[O-])c1)c1ccccc1F	16.2%
Cc1nn2c(NCc3ccccn3)cc(C(C)C)nc2c1-c1ccccc1	11.9%
O=C1c2ccccc2-c2ccc(C(=O)N3CCOCC3)cc21	-17.3%
COCCN(C(=O)COC(=O)c1cc2c(s1)CCCC2)c1c(N)n(Cc2ccccc2)c(=O)[nH]c1=O	-0.675%
COCCNC(=O)C1(C)C=CC2(CCCCC2)N1C(=O)c1ccccc1 (stereo not shown)	5.19%
Cc1nn(Cc2ccc(Cl)cc2)c(C)c1NC(=O)c1noc2c1CCCCC2	-32.7%
Cc1c(-c2ccc(OCc3ccccc3)cc2)nc2ccccc2c1C(=O)O	18.8%
O=C(O)c1cccc(NS(=O)(=O)c2ccc(Cl)c(C(=O)Nc3cccc([N+](=O)[O-])c3)c2)c1	19.7%
